Twelve molecules from the supplement of paper PMC9990464 can be followed below.

Counter-ions that a name gives are not always drawn. The list shows a part of the results. Many values rest on one well or one pass, so single values are uncertain.

The test system of this assay is SKNAS. Put plainly: area under viability curve (10 nM-1 µM), viability relative to solvent or trametinib-only control (AUC (arbitrary, % viability x concentration range)); higher = less growth inhibition (more viable cells). Conditions: 72 h compound exposure (96 h after seeding) h. The method, then:
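Four neuroblastoma cell lines (KCNR, SKNBE, SJNB8, SKNAS) were seeded in 384-well plates. At 24 h, 1 µM trametinib or DMSO was added, followed by library compounds at 10 nM, 100 nM and 1 µM. Viability was read by MTT at 96 h and normalised to solvent-treated cells (DMSO arm) or to trametinib-only cells (trametinib arm). The area under the 3-point viability curve was computed in GraphPad Prism; units are as given (approx. 100000 = no effect).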
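Note: KCNR is a neuroblastoma cell line carrying an ALK mutation, in this DMSO arm without trametinib, viability was normalised to solvent-treated cells.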

Turning to `N.N.[Cl][Pt][Cl]` [Cisplatin], the “area under viability curve” value (trametinib co-treatment 0 µM) was 77400 and the “area under viability curve” value (trametinib co-treatment 1 µM) came to 101000.

Turning to `CCC(=O)CCCCC[C@@H]1NC(=O)[C@H]2CCCCN2C(=O)[C@H]([C@@H](C)CC)NC(=O)[C@H](Cc2cn(OC)c3ccccc23)NC1=O` [Apicidin], the “area under viability curve” value (trametinib co-treatment 0 µM) stood at 52600 and the “area under viability curve” value (trametinib co-treatment 1 µM) worked out at 55800.

With `C=C1C[C@@H]2[C@H](CC[C@]3(C)C(=O)CC[C@@H]23)[C@@]2(C)C=CC(=O)C=C12` [Exemestane], the “area under viability curve” value was 109000 (trametinib co-treatment 0 µM) and 102000 (trametinib co-treatment 1 µM).

Turning to `C[C@]12CC[C@@H]3c4ccc(OC(=O)N(CCCl)CCCl)cc4CC[C@H]3[C@@H]1CC[C@@H]2OP(=O)(O)O` [Estramustine phosphate sodium], the “area under viability curve” value was determined as 84400 (trametinib co-treatment 0 µM) and 99600 (trametinib co-treatment 1 µM).

Regarding `Cc1ncc(CNC(=O)N(CCCl)N=O)c(N)n1` [Nimustine HCl], the “area under viability curve” value reads like this: (trametinib co-treatment 0 µM) 120000; (trametinib co-treatment 1 µM) 100000.

In the case of `O=C(O)c1nn(Cc2ccc(Cl)cc2Cl)c2ccccc12` [Lonidamine], the “area under viability curve” value was 122000 (trametinib co-treatment 0 µM) and 100000 (trametinib co-treatment 1 µM).

Take `N[C@@H](Cc1ccc(N(CCCl)CCCl)cc1)C(=O)O` [Melphalan]: the “area under viability curve” value by setting is: (trametinib co-treatment 0 µM) 118000; (trametinib co-treatment 1 µM) 97800.

Take `N[C@@H]1C[C@H]1c1ccccc1.N[C@H]1C[C@@H]1c1ccccc1` [Tranylcypromine hemisulfate]: the “area under viability curve” value (trametinib co-treatment 0 µM) stood at 87200 and the “area under viability curve” value (trametinib co-treatment 1 µM) is 93100.

For the molecule `CC[C@H](Nc1nc(NCc2cnc(C)cc2C)c2ncn(C(C)C)c2n1)[C@@H](C)O` [Fadraciclib], the “area under viability curve” value amounted to 94500 (trametinib co-treatment 0 µM) and 101000 (trametinib co-treatment 1 µM).

With `CC[C@@]1([C@H]2O[C@H]([C@H]3O[C@@](O)(CO)[C@H](C)C[C@@H]3C)C[C@H]2C)CC[C@H]([C@@]2(C)CC[C@]3(C[C@H](O)[C@@H](C)[C@@H]([C@H](C)[C@H](OC)[C@@H](C)C(=O)O)O3)O2)O1` [Monensin sodium], the “area under viability curve” value reads like this: (trametinib co-treatment 0 µM) 102000; (trametinib co-treatment 1 µM) 83700.

Turning to `C[C@]12CCC(=O)C(O)=C1CC[C@@H]1[C@@H]2CC[C@]2(C)C(=O)CC[C@@H]12` [Formestane], the “area under viability curve” value (trametinib co-treatment 0 µM) came to 95500 and the “area under viability curve” value (trametinib co-treatment 1 µM) came out at 97300.

For the molecule `CC(=O)Oc1ccc(/C=C/c2cc(OC(C)=O)cc(OC(C)=O)c2)cc1` [Triacetylresveratrol], the “area under viability curve” value (trametinib co-treatment 0 µM) was determined as 95200 and the “area under viability curve” value (trametinib co-treatment 1 µM) is 102000.
